Data: a compilation of properties of binary mixtures (doi:10.1021/acs.jced.9b00875)
The densities may have been worked out from excess volumes.

Experiment: xn = mol fraction of the nth substance listed
Settings: 101 kPa

CCCC[n+]1ccn(C)c1.F[B-](F)(F)F + CNC(C)=O
x1 = 1
Settings | mass density [kg/m3]
298.15 K | 1202.6
303.15 K | 1199.3
308.15 K | 1195.9
313.15 K | 1192.2
318.15 K | 1188.3

CNC(C)=O + CCCC[n+]1ccn(C)c1.F[B-](F)(F)F
mass density [kg/m3]
Settings | 293.15 K | 298.15 K | 303.15 K | 308.15 K | 313.15 K | 318.15 K
x2 = 0 | 958.1 | 954.7 | 951.3 | – | 944.1 | 940.4
x2 = 0.0711 | – | – | 991.3 | 987.9 | 984.4 | –
x2 = 0.1409 | – | 1027.1 | – | 1020.7 | 1017.3 | –
x2 = 0.2042 | 1055.4 | – | 1049.3 | 1046 | 1042.7 | 1039.3
x2 = 0.27 | 1078.1 | 1075.1 | 1072.1 | 1068.9 | 1065.6 | 1062.1
x2 = 0.3564 | 1103.6 | 1100.6 | 1097.6 | 1094.5 | 1091.2 | 1087.7
x2 = 0.4343 | – | 1120.2 | 1117.2 | 1114.1 | 1110.8 | 1107.4
x2 = 0.4992 | 1137.3 | – | 1131.5 | 1128.3 | – | 1121.7
x2 = 0.5552 | 1148.3 | 1145.5 | 1142.5 | 1139.4 | 1136.1 | 1132.8
x2 = 0.6389 | 1162.9 | 1160 | 1157.1 | 1154 | 1150.8 | 1147.4
x2 = 0.714 | 1174.2 | 1171.4 | 1168.5 | – | 1162.1 | 1158.8
x2 = 0.7774 | – | – | 1176.9 | 1173.8 | 1170.5 | 1167.1
x2 = 0.8495 | 1191.2 | 1188.4 | 1185.4 | 1182.2 | 1178.9 | 1175.4
x2 = 0.9302 | 1199.5 | 1196.6 | 1193.5 | 1190.2 | 1186.7 | 1183.1
